Some of the results follow. At the low end of the ranking the order means little. The protein was read in a cell extract, so binding may be indirect.
What follows are sequences tested against T1, HNF4alpha8 (COS-7 nuclear extract) (UniProt P41235-5) (assay: protein-binding microarray). Conditions: COS-7 nuclear extract on double-stranded Agilent 4x180k PBM; binding buffer, salt, pH and temperature not given; high values mean tight binding; double strand, one strand shown; sequences stand for … in …GCCTAGGGAGATTAGAGTATCGGTCGA.
T1 sequence: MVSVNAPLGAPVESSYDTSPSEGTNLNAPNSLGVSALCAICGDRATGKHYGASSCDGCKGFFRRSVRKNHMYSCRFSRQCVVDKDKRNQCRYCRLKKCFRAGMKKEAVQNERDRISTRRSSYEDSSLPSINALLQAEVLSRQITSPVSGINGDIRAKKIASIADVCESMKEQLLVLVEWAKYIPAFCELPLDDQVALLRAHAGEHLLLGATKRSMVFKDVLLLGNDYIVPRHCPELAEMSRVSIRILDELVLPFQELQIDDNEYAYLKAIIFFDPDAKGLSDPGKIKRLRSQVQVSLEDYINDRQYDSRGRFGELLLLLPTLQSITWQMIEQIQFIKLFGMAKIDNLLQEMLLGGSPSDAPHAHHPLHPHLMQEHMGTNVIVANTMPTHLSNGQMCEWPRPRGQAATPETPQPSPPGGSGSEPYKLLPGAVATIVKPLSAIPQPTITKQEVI
For CGCCGCGGGCGCCCTGGTCTCTGCTACCTG, the binding signal (log2 normalized intensity) was -1.34. GTGACCTTTGCTCCAGTTCCCAATAAGTTG was tested, and the binding signal (log2 normalized intensity) was 5.13. In the case of TGGCCCAAGGCCTCTGACATAAATCACATT, the binding signal (log2 normalized intensity) is reported as -1.32. TCCAAGATCCAACTCTGAAGATTCACAGGT was tested, and the binding signal (log2 normalized intensity) was -1.26. In the case of ACAAGCAACCCTCCTCCCTTTGGCCATGAA, the binding signal (log2 normalized intensity) is reported as 1.33. Sequence GCCCCTGGCTGGGCCCTGACCTCAAGTGAC has a binding signal (log2 normalized intensity) of 2.6. In the case of GATGCCATTCCCTGCAGGTGAAACTCCAGG, the binding signal (log2 normalized intensity) is reported as -1.31. In the case of TTGTGCTAGAAAGAATGAGAAGGGCTAATA, the binding signal (log2 normalized intensity) is reported as -0.86. Sequence CATTGTTGGGATAAAATTCAACAGAGCTAT has a binding signal (log2 normalized intensity) of -1.36. CCACTTACCACCCACAGAGGGGGTTTGTTT was tested, and the binding signal (log2 normalized intensity) was -1.12. In the case of AGAAAACACAGAGATCTGATCAAAGGTCAT, the binding signal (log2 normalized intensity) is reported as 6.61. For TCTCTACGACTTGCTTATCTTACGCAACTG, the binding signal (log2 normalized intensity) was 0.377. With GGTGAAGGGGTCACCTCGCTCCCCTCCTGT the binding signal (log2 normalized intensity) was 1.02. Work on TAGGGAAAATAGTGACCCTGTCTCTCAGTC yielded a binding signal (log2 normalized intensity) of 1.62. CATACTTCTTCCTGTTTGACCTTCGAACCC gave a binding signal (log2 normalized intensity) of 10.1. With CTCACCTGGATGTTTTGATGAACTTTCAAG the binding signal (log2 normalized intensity) was 2.14. For GCACAGTGCCTGGCATGTGATAGGCATGCA, the binding signal (log2 normalized intensity) was 0.293. CTGCACAGCATAGAAAACAAGTTAGACAGT was tested, and the binding signal (log2 normalized intensity) was -1.28. In the case of CTAGGAGACAACTTAGAATTTCATTTTGCT, the binding signal (log2 normalized intensity) is reported as -1.27. Work on CTTACTTTTATCAGGTAAAGATATGGAACA yielded a binding signal (log2 normalized intensity) of 1.45. In the case of ATCTCTGTGGGAGGGAAGGAGCCTAACTTT, the binding signal (log2 normalized intensity) is reported as -1.44. GGTTTTCTTGCAAACATTACTGGCACACAG showed a binding signal (log2 normalized intensity) of 0.466. CTTCCAGAAATGCCAAGATCAGGGCTAAGA was tested, and the binding signal (log2 normalized intensity) was -1.36. Work on CTCTTATCTGAATGTATGGGCTATTTATGA yielded a binding signal (log2 normalized intensity) of 1.01. Sequence CTTTTTAGGAAACATTTCCATTGAAGCAGA has a binding signal (log2 normalized intensity) of -1.37. With CCTAACTTGTGGCTGGGTGATCTGGGAAAC the binding signal (log2 normalized intensity) was 0.235. In the case of GAGGTCACAACAGAAAGCAAGAGCACAAGA, the binding signal (log2 normalized intensity) is reported as -1.31. TCAAATATGTCTCTCCTATTCAGGTATTTG gave a binding signal (log2 normalized intensity) of 1.98. CTCCCTTGCACCAGTTTCTCAACAGACCCC showed a binding signal (log2 normalized intensity) of 2.95. AAAGGGTCTTAGTATTAACGGTGAGGGAGG showed a binding signal (log2 normalized intensity) of -0.902. Sequence ACCACATTCTCACCACTAGGAAACTGACCT has a binding signal (log2 normalized intensity) of 3.77. Work on TCATGTCACGTTGGGGGTGCTGATGTTAAC yielded a binding signal (log2 normalized intensity) of 0.934. For GGTCTGCAATCTAAGTCTGGCTCCTGAAAC, the binding signal (log2 normalized intensity) was -1.39. For ACACTCCTTGTTCTCAGAGATCAAAGGTGA, the binding signal (log2 normalized intensity) was 5.18. For GCATGGAATGACTTTGGGGAAATGACCTTT, the binding signal (log2 normalized intensity) was 7.96. Work on TGGGGTATGTGCTCACTCCTGGGACAAGGA yielded a binding signal (log2 normalized intensity) of -1.38. GGGCTTCCAGGCTTGGAGCCCCTTTGGAGG gave a binding signal (log2 normalized intensity) of -0.84. In the case of AGCAATAGGAAATGGGAGGGTAAATTCCTT, the binding signal (log2 normalized intensity) is reported as -0.0321. GCTTGAAAAGTCTTTCTGCCAAAGTTCAGC gave a binding signal (log2 normalized intensity) of 2.55. Work on TCGCAGACTTTGGACTCTGCAAGGAAGGTG yielded a binding signal (log2 normalized intensity) of 6.04. GAGGTTTTCATCCCAGGGCTGGGGAAACAA showed a binding signal (log2 normalized intensity) of -1.26. Sequence GAGCCTGCACGCCTGTTCACATTCCAGTGT has a binding signal (log2 normalized intensity) of -1.05. Work on GAAACGGGATTTCTTTATATTATGCTAGAC yielded a binding signal (log2 normalized intensity) of -0.119. Work on TACGAAGGGTTTAAAGGGCAGAAGAAGGGA yielded a binding signal (log2 normalized intensity) of 1.19. ACTGACTGCTTTATCAGTGTAGTTTGAAGC was tested, and the binding signal (log2 normalized intensity) was 0.518. AGGTTCCATGGTGTAATGGTTAGCACTCTG gave a binding signal (log2 normalized intensity) of 1.1. With CAAACATTAGCTGCAGATTCCACCTTAGAG the binding signal (log2 normalized intensity) was -1.29. In the case of GTATCTGACTTTATCATTGGACTCTCTCAT, the binding signal (log2 normalized intensity) is reported as 3.43. Work on AGCCAGGCAGTCGGGAAATTCCAGCAGGAA yielded a binding signal (log2 normalized intensity) of -1.26. Work on CAATATCGCAGTCATAAATACTCATTATGT yielded a binding signal (log2 normalized intensity) of -0.0837. For TCTGTTGTGTCAAAGGTCACTTAGTCCCTA, the binding signal (log2 normalized intensity) was 5.3. ATGTATGCATAGACTGCCCAGAATTTCCTG was tested, and the binding signal (log2 normalized intensity) was -1.31. For GGTCTAAGGGCAAGTGACTGATAAGGCTAA, the binding signal (log2 normalized intensity) was -1.28. ATAACCTACTTAAAAAGAAATAGCCTGAAA gave a binding signal (log2 normalized intensity) of -1.36. ATGGTGCTGGCGGGAGCATAGCAGCGAGGA was tested, and the binding signal (log2 normalized intensity) was -1.38. For CTCAAGCTCTCCTCTTATCAGGCAGGATAT, the binding signal (log2 normalized intensity) was 0.105. Work on CCTAGGGGGAAGCCCCTGCTTCCGGACACA yielded a binding signal (log2 normalized intensity) of -1.33. TACGCAAGTGGTACCTCCCGAAAGTGACCC was tested, and the binding signal (log2 normalized intensity) was 5.07. GAATTAACTAAAAGTATCTAAGGGCCTAGA showed a binding signal (log2 normalized intensity) of -1.3. Sequence CCACAGCGTTTTCCTCCAGCCTGTCGGAAT has a binding signal (log2 normalized intensity) of -1.16. Sequence TTGATCCAGGATCCTTCTTGACCAGGCAAG has a binding signal (log2 normalized intensity) of 0.747. Work on GCTACAACTGGACTAGACAGGCTTGTCGAG yielded a binding signal (log2 normalized intensity) of -1.37. GGAAATGAATTGATAAACACTTGCCTACTT showed a binding signal (log2 normalized intensity) of -1.26. Sequence TCTTGTAAGGTTCTTGTATCTGATCTGTGT has a binding signal (log2 normalized intensity) of 2.18. CATCTCAAAGGCATTTTTTGTAGATGCCTG gave a binding signal (log2 normalized intensity) of 0.625. GAAACCTAGGAGTTATCTAAGACCCATCCC gave a binding signal (log2 normalized intensity) of 1.43. In the case of GGGGGTTTGCAACCTTTGATAACCTACAAC, the binding signal (log2 normalized intensity) is reported as 1.37. TCAATCCTGGCCTCTGAGGTGTTAACCTGA gave a binding signal (log2 normalized intensity) of 1.11. With ATTATCAGTAACTCACTATCAGGAAACTCT the binding signal (log2 normalized intensity) was -1.07. In the case of CAAGCAAACACACTTGCTCTAATCCTTTAA, the binding signal (log2 normalized intensity) is reported as -1.31. TTCGGTGTCATCTAGACCTGGACTTGAAGC showed a binding signal (log2 normalized intensity) of 2.35. CTTCCTCATGATCGCTTCCAGGGTTACCGG gave a binding signal (log2 normalized intensity) of -0.0281. CAGTGGGGGGGGGGGGGGGGGTGTGTCTGT gave a binding signal (log2 normalized intensity) of 0.963. For TCTTCCTTTCTATCAGCTCTCCGTGGACTT, the binding signal (log2 normalized intensity) was 3.52. CTGAGCAGGGTCCAACCCACAGGGGTAGAA showed a binding signal (log2 normalized intensity) of 0.648. With TTTCCTGCCTGCCGGCTCTGAAGAGAACGG the binding signal (log2 normalized intensity) was -1.31. CTAGCTCACTGATAAGAAAGGCTTCTGGGA gave a binding signal (log2 normalized intensity) of -1.23. AAAAATATTGAACAAAGATTGCTTGCCAGT showed a binding signal (log2 normalized intensity) of -0.819. ACTGGAAGCAAGCCCTATTAGGCATTTCAT showed a binding signal (log2 normalized intensity) of -1.21. With GCTGCTTTAGACATGAGATAGCATTCCAAG the binding signal (log2 normalized intensity) was -1.16. GGGTATAACCTTCTTCTATGCCCTCTTCTG was tested, and the binding signal (log2 normalized intensity) was 2.58. GAGGTCACCCTGTGTCAGCGACTGGGCAGT gave a binding signal (log2 normalized intensity) of -0.775. GGAGCCCCCTGGGGGAGGTTTCCTGCTGTC showed a binding signal (log2 normalized intensity) of -1.37. With CCTTTTGTGTAGGAGTACACTCAGCACACC the binding signal (log2 normalized intensity) was 1.36. Sequence CAGGGATTATTAATTTACTGAAAAGTCTAC has a binding signal (log2 normalized intensity) of -0.369. GGATTATGGAGATGGAGATGGCCTGGAGGT was tested, and the binding signal (log2 normalized intensity) was 0.909. In the case of AATTATCCAGATCAAGGATTTTTTCTTGGA, the binding signal (log2 normalized intensity) is reported as -1.28. CGACCTGCTGGACGGGAGGAAAACTGGGCA gave a binding signal (log2 normalized intensity) of -1.3. In the case of TAAAGGCTTTTAAAGGCTAGTGAAACATGC, the binding signal (log2 normalized intensity) is reported as -1.34. GGTCGAAAGGCAGGCAGTGGAGGGCTCCCT was tested, and the binding signal (log2 normalized intensity) was -1.37. Sequence TTTTCCACCCTCCCCTCCCCCTCCTCCCCT has a binding signal (log2 normalized intensity) of 7.22. In the case of GCAAAGTGGCTAGGACCTTTGAACCAGAGA, the binding signal (log2 normalized intensity) is reported as 5.24. For GTCAGCTTCAGCCAGATAGCCACTGGGGTC, the binding signal (log2 normalized intensity) was 2.88.

From article PMC10726135
